# Experimental data published in the supplement of paper PMC8728848.
# This is one part of the list.
# B1: F17-L (Escherichia coli) (protein)
# chain: GPDDYVPSQIAVNTSTLPGVVIGPADAHTYPRVIGELAGTSNQYVFNGGAIALMRGKFTPALPKIGSITYTFHQGNSRDSSDFDIYDIGVSGLGIIIGMAGYWPATPLVPINSSGIYIDPVGANTNPNTYNGATASFGARLFVAFVATGRLPNGYITIPTRQLGTILLEAKRTSLNNKGLTAPVMLNGGRIQVQSQTHHHHHH
# Columns and labels:
# Test in all cases: glycan array binding signal (z-score within array); higher = stronger binding
# Settings in all cases: glycan notation: IUPAC condensed, linker removed
# [1] = biological target: Fuc(a1-2)Gal
# Outline: (§1)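 Glycan array data were curated from 3228 arrays in the Consortium for Functional Glycomics database and kept only where the protein sequence was available. Glycan names were converted to IUPAC-condensed notation, and columns mapping to the same glycan were averaged. The binding signal is a within-array Z-score, averaged across arrays of the same protein sequence at different concentrations or buffers and across linkers. Negative Z-scores can be read as non-binding.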
# [2] = biological target: Fuc(a1-2)Gal(b1-3)GalNAc
# Outline: as §1
# [3] = biological target: Fuc(a1-2)Gal(b1-3)GalNAc(a1-3)[Fuc(a1-2)]Gal(b1-4)Glc
# Outline: as §1
# [4] = biological target: Fuc(a1-2)Gal(b1-3)GalNAc(a1-3)[Fuc(a1-2)]Gal(b1-4)GlcNAc
# Outline: as §1
# [5] = biological target: Fuc(a1-2)Gal(b1-3)GalNAc(b1-3)Gal
# Outline: as §1
# [6] = biological target: Fuc(a1-2)Gal(b1-3)GalNAc(b1-3)Gal(a1-4)Gal(b1-4)Glc
# Outline: as §1
# [7] = biological target: Fuc(a1-2)Gal(b1-3)GalNAc(b1-4)[Neu5Ac(a2-3)]Gal(b1-4)Glc
# Outline: as §1
# [8] = biological target: Fuc(a1-2)Gal(b1-3)GlcNAc
# Outline: as §1
# [9] = biological target: Fuc(a1-2)Gal(b1-3)GlcNAc(b1-2)Man(a1-3)[Fuc(a1-2)Gal(b1-3)GlcNAc(b1-2)Man(a1-6)]Man(b1-4)GlcNAc(b1-4)GlcNAc
# Outline: as §1
# [10] = biological target: Fuc(a1-2)Gal(b1-3)GlcNAc(b1-2)Man(a1-3)[Fuc(a1-2)Gal(b1-3)GlcNAc(b1-2)Man(a1-6)]Man(b1-4)GlcNAc(b1-4)[Fuc(a1-6)]GlcNAc
# Outline: as §1
# [11] = biological target: Fuc(a1-2)Gal(b1-3)GlcNAc(b1-3)Gal(b1-4)Glc
# Outline: as §1
# [12] = biological target: Fuc(a1-2)Gal(b1-3)GlcNAc(b1-3)GalNAc
# Outline: as §1
# [13] = biological target: Fuc(a1-2)Gal(b1-3)GlcNAc(b1-3)[Fuc(a1-2)Gal(b1-3)GlcNAc(b1-6)]GalNAc
# Outline: as §1
# [14] = biological target: Fuc(a1-2)Gal(b1-3)GlcNAc(b1-3)[Gal(b1-4)GlcNAc(b1-6)]Gal(b1-4)Glc
# Outline: as §1
# [15] = biological target: Fuc(a1-2)Gal(b1-3)GlcNAc(b1-3)[Neu5Ac(a2-6)Gal(b1-4)GlcNAc(b1-6)]Gal(b1-4)Glc
# Outline: as §1
# [16] = biological target: Fuc(a1-2)Gal(b1-3)GlcNAc6S
# Outline: as §1
# [17] = biological target: Fuc(a1-2)Gal(b1-3)[Fuc(a1-4)]GlcNAc
# Outline: as §1
# [18] = biological target: Fuc(a1-2)Gal(b1-3)[Fuc(a1-4)]GlcNAc(b1-2)Man(a1-3)[Fuc(a1-2)Gal(b1-3)[Fuc(a1-4)]GlcNAc(b1-2)Man(a1-3)]Man(b1-4)GlcNAc(b1-4)GlcNAc
# Outline: as §1
# [19] = biological target: Fuc(a1-2)Gal(b1-3)[Fuc(a1-4)]GlcNAc(b1-2)Man(a1-3)[Fuc(a1-2)Gal(b1-3)[Fuc(a1-4)]GlcNAc(b1-2)Man(a1-6)]Man(b1-4)GlcNAc(b1-4)[Fuc(a1-6)]GlcNAc(b1-4)[Fuc(a1-6)]GlcNAc
# Outline: as §1
# [20] = biological target: Fuc(a1-2)Gal(b1-3)[Fuc(a1-4)]GlcNAc(b1-3)[Fuc(a1-3)[Gal(b1-4)]GlcNAc(b1-6)]Gal(b1-4)Glc
# Outline: as §1
# [21] = biological target: Fuc(a1-2)Gal(b1-3)[Fuc(a1-4)]GlcNAc(b1-3)[Gal(b1-4)GlcNAc(b1-6)]Gal(b1-4)Glc
# Outline: as §1
# [22] = biological target: Fuc(a1-2)Gal(b1-4)Glc
# Outline: as §1
# [23] = biological target: Fuc(a1-2)Gal(b1-4)Glc6S
# Outline: as §1
# [24] = biological target: Fuc(a1-2)Gal(b1-4)GlcNAc
# Outline: as §1
# [25] = biological target: Fuc(a1-2)Gal(b1-4)GlcNAc(b1-2)Man
# Outline: as §1
# [26] = biological target: Fuc(a1-2)Gal(b1-4)GlcNAc(b1-2)Man(a1-3)[Fuc(a1-2)Gal(b1-4)GlcNAc(b1-2)Man(a1-6)]Man(b1-4)GlcNAc(b1-4)GlcNAc
# Outline: as §1
# [27] = biological target: Fuc(a1-2)Gal(b1-4)GlcNAc(b1-2)Man(a1-3)[Fuc(a1-2)Gal(b1-4)GlcNAc(b1-2)Man(a1-6)]Man(b1-4)GlcNAc(b1-4)[Fuc(a1-6)]GlcNAc
# Outline: as §1
# [28] = biological target: Fuc(a1-2)Gal(b1-4)GlcNAc(b1-2)[Fuc(a1-2)Gal(b1-4)GlcNAc(b1-4)]Man(a1-3)[Fuc(a1-2)Gal(b1-4)GlcNAc(b1-2)Man(a1-6)]Man(b1-4)GlcNAc(b1-4)GlcNAc
# Outline: as §1
# [29] = biological target: Fuc(a1-2)Gal(b1-4)GlcNAc(b1-3)Gal(b1-4)GlcNAc
# Outline: as §1
# [30] = biological target: Fuc(a1-2)Gal(b1-4)GlcNAc(b1-3)Gal(b1-4)GlcNAc(b1-2)Man(a1-3)[Fuc(a1-2)Gal(b1-4)GlcNAc(b1-3)Gal(b1-4)GlcNAc(b1-2)Man(a1-6)]Man(b1-4)GlcNAc(b1-4)GlcNAc
# Outline: as §1
binder,measurement,setting,value
B1,glycan array binding signal (z-score),[1],-0.125
same,glycan array binding signal (z-score),[2],-0.139
same,glycan array binding signal (z-score),[3],-0.165
same,glycan array binding signal (z-score),[4],-0.082
same,glycan array binding signal (z-score),[5],-0.136
same,glycan array binding signal (z-score),[6],-0.143
same,glycan array binding signal (z-score),[7],-0.14
same,glycan array binding signal (z-score),[8],-0.129
same,glycan array binding signal (z-score),[9],0.253
same,glycan array binding signal (z-score),[10],0.17
same,glycan array binding signal (z-score),[11],1.54
same,glycan array binding signal (z-score),[12],-0.144
same,glycan array binding signal (z-score),[13],0.108
same,glycan array binding signal (z-score),[14],-0.125
same,glycan array binding signal (z-score),[15],-0.061
same,glycan array binding signal (z-score),[16],-0.097
same,glycan array binding signal (z-score),[17],-0.231
same,glycan array binding signal (z-score),[18],-0.049
same,glycan array binding signal (z-score),[19],-0.089
same,glycan array binding signal (z-score),[20],-0.044
same,glycan array binding signal (z-score),[21],-0.028
same,glycan array binding signal (z-score),[22],-0.198
same,glycan array binding signal (z-score),[23],-0.146
same,glycan array binding signal (z-score),[24],-0.107
same,glycan array binding signal (z-score),[25],0.101
same,glycan array binding signal (z-score),[26],-0.001
same,glycan array binding signal (z-score),[27],0.377
same,glycan array binding signal (z-score),[28],-0.006
same,glycan array binding signal (z-score),[29],-0.098
same,glycan array binding signal (z-score),[30],0.361
